Consider 55 compounds from ChEMBL document CHEMBL4888484, “Replenishing the malaria drug discovery pipeline: Screening and hit evaluation of the MMV Hit Generation Library 1 (HGL1) against asexual blood stage Plasmodium falciparum ,using a nano luciferase reporter read-out” (2022).

Among all 150,000 compounds or so, about 540 (0.36%) showed an effect of 50% or more. Some of the results follow.

For orientation: % Inhibition means the drop in the measured response relative to a control, in per cent.

This assay concerns Plasmodium falciparum. The experiment in a line: Primary screen in NF54 nanoGlo assay, in single point, at 2uM, 72h; a lower Z score goes with more inhibition. Type of assay: functional, Erythrocyte. The note with it: timepoint 72 hour.
With `CN(C)c1ccc(CNC[C@@H](c2ccccc2)N2CCCCCC2)cn1`, the “% Inhibition” value was -3% and the Z score was found to be 0.49.

`COc1ccc(CN2CCOC[C@@H](CN(C)C)C2)c(Cl)c1OC`: the “% Inhibition” value is -15% and the Z score is 1.49.

For the compound `C[C@H]1CCCN(C(=O)c2cccc(S(=O)(=O)N3CCCCC3)c2)C1`, the “% Inhibition” value is -14% and the Z score was found to be 2.16.

Take `CCN(CC)[C@@H](Cn1cnc(-c2ccccc2)c1-c1cnn(C)c1C)c1ccco1`: the “% Inhibition” value is on record as 0% and the Z score is listed as 0.01.

Regarding `C[C@@H]1CCC[C@H](C)N1C(=O)c1coc(COc2cccc(C(F)(F)F)c2)n1`, the “% Inhibition” value is 0% and the Z score was -0.01.

Take `COCc1cc(Cn2cc(-c3ncc[nH]3)nn2)n[nH]1`: the “% Inhibition” value is on record as 5% and the Z score is recorded as -0.75.

On to `CCc1csc(NC(=O)N(C)Cc2c(C)noc2C)n1`, for which the “% Inhibition” value is listed as -2% and the Z score is on record as 0.29.

`CCC(CC)C(=O)N1CCC(NS(=O)(=O)C[C@H](C)C2CC2)CC1`: the “% Inhibition” value was -8% and the Z score was determined as 0.94.

For the compound `CN(C)C(=O)[C@@H]1CN(CC(=O)NC2CCCCCC2)CCO1`, the “% Inhibition” value is on record as 3% and the Z score was -0.42.

For the compound `CC(C)c1ccc(OC[C@H]2c3ccsc3CCN2C(=O)CN(CCN2CCCC2)C(=O)NC(C)(C)C)cc1`, the “% Inhibition” value is listed as -2% and the Z score worked out at 0.32.

Take `Cn1c(-c2ccc(Cl)c(Cl)c2)c[n+](CC(=O)c2ccc(F)cc2)c1N`: the “% Inhibition” value is 37% and the Z score is given as -4.75.

In the case of `CCOCc1ccc(NC[C@H]2CCC=CO2)cc1`, the “% Inhibition” value was found to be 3% and the Z score is -0.46.

Consider `O=C(N[C@H]1CCOC[C@@H]1OCc1cscn1)c1nccnc1O`, for which the “% Inhibition” value stood at 2% and the Z score was -0.19.

Consider `C[C@@H](c1ccncn1)N(C)C(=O)c1ccc(CCC(C)(C)O)cc1`, for which the “% Inhibition” value was -4% and the Z score was found to be 0.68.

As to `COc1cccn(Cc2nccn2C(C)C)c1=O`, the “% Inhibition” value was -4% and the Z score came to 0.8.

For `Cc1ccc(C(=O)O)c(N2CCn3nc(CNC(=O)C4CCC4)cc3C2)n1`, the “% Inhibition” value is -8% and the Z score came to 1.1.

Take `Cc1nc(C2=C(O)CN(C3CCCCCCC3)C2=N)sc1C`: the “% Inhibition” value is given as -4% and the Z score is 0.42.

Regarding `c1ccc2c(c1)CC(NCc1cccnc1-n1ccnc1)C2`, the “% Inhibition” value was -10% and the Z score is listed as 1.16.

Take `Cc1ccc(Cl)cc1/N=C(\NCc1cccnc1)NC(=O)c1cccc(F)c1`: the “% Inhibition” value is reported as -11% and the Z score turned out to be 0.99.

As for `Cc1ccccc1[C@]1(O)CCN(C(=O)NC2(c3cc(F)ccc3F)CC2)C1`, the “% Inhibition” value is reported as -4% and the Z score came out at 0.6.

With `CC(C)[C@H](Cn1nccn1)NC(=O)Nc1cccs1`, the “% Inhibition” value is -3% and the Z score amounted to 0.46.

Take `Cc1cnc(C)c(N2CCC[C@H](OCC3CC3)C2)n1`: the “% Inhibition” value was -9% and the Z score stood at 1.01.

Turning to `O=C(N[C@@H](Cc1ccccc1)C(=O)N1CCC2(CC1)NCCc1[nH]cnc12)c1ccc2c(c1)OCO2`, the “% Inhibition” value was -9% and the Z score was determined as 1.17.

As to `CC(=O)Nc1cc(Br)ccc1N`, the “% Inhibition” value is -34% and the Z score turned out to be 3.98.

Take `Cc1c(C(=O)N(C)Cc2ccco2)cnn1[C@H]1CCS(=O)(=O)C1`: the “% Inhibition” value was 2% and the Z score was -0.35.

For the compound `CC(C)c1nnc(CCC(=O)N2CCOC[C@@H]2CC2CCC2)o1`, the “% Inhibition” value is recorded as -6% and the Z score is reported as 1.14.

Regarding `Cc1c(Br)cc(C(=O)N(C)c2cnn(C)c2)c(=O)n1C`, the “% Inhibition” value is on record as -7% and the Z score was found to be 0.89.

For the compound `COC[C@H](NC(=O)Nc1cccc(-n2nccc2C)c1)c1ccco1`, the “% Inhibition” value is given as -4% and the Z score is given as 0.69.

`CN(C)c1ccc(N2CCC(C(=O)NCCc3c[nH]c4ccccc34)CC2)nn1`: the “% Inhibition” value was -16% and the Z score was found to be 2.91.

With `Cc1nnc(N2CCCC[C@@H]2CCc2ccccc2)s1`, the “% Inhibition” value was 2% and the Z score is reported as -0.24.

`C#CCNC(=O)CC(=O)N1CC[C@H](NC(=O)OC(C)(C)C)c2cc(OC)ccc21`: the “% Inhibition” value is on record as 7% and the Z score was -0.8.

`C[C@@H]1CN(C(=O)c2ccc(-c3cc(NC4CC4)nc(N)n3)cc2)C[C@H](C)O1`: the “% Inhibition” value stood at 0% and the Z score came out at 0.07.

Take `COc1cccc2c(=O)c3c(cnn3C)[nH]c12`: the “% Inhibition” value was -11% and the Z score was determined as 2.21.

Consider `C[C@@H](CN(C)c1ncc(C#N)cc1Cl)c1nnn[nH]1`, for which the “% Inhibition” value was found to be 3% and the Z score is -0.37.

With `COc1ccc(NC(=O)c2n[nH]c3c2CCCC3)cn1`, the “% Inhibition” value is -14% and the Z score was determined as 1.76.

For `O=C(Cc1ccccc1)Nc1c(-c2ccc(C(F)(F)F)cc2)n[nH]c1C1CC1`, the “% Inhibition” value was determined as 5% and the Z score was -0.85.

For `C=CCn1c(Cc2cn3ccccc3n2)nnc1N1CC2CCC1C2` (stereo not given), the “% Inhibition” value amounted to 6% and the Z score is on record as -0.98.

`COc1ccc(CNCCC2C(C)CN(C)C(C)C2Cc2ccccc2)cc1` (stereo not given): the “% Inhibition” value came to 55% and the Z score is -7.17.

Consider `CCS(=O)(=O)N1CCC(C(=O)N(Cc2ccccc2)c2ccccc2)CC1`, for which the “% Inhibition” value is 4% and the Z score is -0.52.

In the case of `Cc1cc([C@H](C)NCc2nc(C(C)C)cs2)no1`, the “% Inhibition” value is -1% and the Z score came out at 0.28.

As for `O=C1N(CC2CC2)CCC[C@@]1(O)CN1CCC(Cc2ccccc2F)CC1`, the “% Inhibition” value is given as -15% and the Z score is 1.79.

For the compound `Cc1nccnc1CCNCc1ccc(Cl)s1`, the “% Inhibition” value is -7% and the Z score is 1.3.

`O=C(Nc1cnc(N2CCCC2)nc1)c1cccc(Br)c1`: the “% Inhibition” value is listed as -30% and the Z score came to 2.6.

For the compound `O=C(CCc1conc1-c1cccc(F)c1)NCc1ccco1`, the “% Inhibition” value is on record as -16% and the Z score was 2.14.

As to `N#Cc1c(F)cccc1NC[C@H]1CCCO1`, the “% Inhibition” value is listed as -9% and the Z score is on record as 1.39.

Take `CCOC(=O)[C@@H]1CCCCN1C(=O)Cc1cccnc1`: the “% Inhibition” value is given as -5% and the Z score is listed as 0.47.

`Cc1ccsc1CN1CCc2nc(N3CCC(C)CC3)nc(Oc3ccc(F)cc3F)c2C1`: the “% Inhibition” value was -15% and the Z score is recorded as 2.13.

Regarding `COc1ccc(C(=O)N2CCC(Cn3c(C)cnc3C3CCOCC3)CC2)cn1`, the “% Inhibition” value is listed as -3% and the Z score was 0.39.

Regarding `O=C(c1cc2ccccc2s1)N1CC(N2CCCC2)C1`, the “% Inhibition” value was -8% and the Z score is given as 0.98.

Consider `COCCCNCCOCCOc1c(C)cccc1C`, for which the “% Inhibition” value is reported as -3% and the Z score is listed as 0.51.

Take `COCCCn1cnnc1CNC(=O)N[C@H](C)c1ccc(F)cc1`: the “% Inhibition” value was -8% and the Z score amounted to 0.85.

As for `CCN1CCN(C(C)CNC(=O)C2CCCN2C(=O)c2ccccc2O)CC1` (stereo not given), the “% Inhibition” value is -2% and the Z score amounted to 0.31.

Take `Cc1ccc(C2(CNC(=O)N3CCC[C@](C)(O)C3)CC2)c(C)c1`: the “% Inhibition” value is given as -19% and the Z score was 3.38.

Regarding `Cc1[nH]c2ccccc2c1C1=CCN(C(=O)CN2CCCC2=O)CC1`, the “% Inhibition” value is -6% and the Z score was found to be 1.14.

Turning to `Cc1cccc2nc(N3CCOC[C@@H](O)C3)sc12`, the “% Inhibition” value is -2% and the Z score is 0.47.
